Test results from publication PMC6078952.
No constants are given. Whether binding was seen depends on the method and setting. Some binding calls cover weakened binding; strength is not graded here.

Chains of the proteins cited; added tags and fusions are not shown. Lines headed by an entry give the natural chain unless they say otherwise; changes in a name come on top. A line that says so, or that is headed by a name, gives the form on record, which may keep a tag or linker. Residues count along the entry.
UniProt P55066, residues 23-637: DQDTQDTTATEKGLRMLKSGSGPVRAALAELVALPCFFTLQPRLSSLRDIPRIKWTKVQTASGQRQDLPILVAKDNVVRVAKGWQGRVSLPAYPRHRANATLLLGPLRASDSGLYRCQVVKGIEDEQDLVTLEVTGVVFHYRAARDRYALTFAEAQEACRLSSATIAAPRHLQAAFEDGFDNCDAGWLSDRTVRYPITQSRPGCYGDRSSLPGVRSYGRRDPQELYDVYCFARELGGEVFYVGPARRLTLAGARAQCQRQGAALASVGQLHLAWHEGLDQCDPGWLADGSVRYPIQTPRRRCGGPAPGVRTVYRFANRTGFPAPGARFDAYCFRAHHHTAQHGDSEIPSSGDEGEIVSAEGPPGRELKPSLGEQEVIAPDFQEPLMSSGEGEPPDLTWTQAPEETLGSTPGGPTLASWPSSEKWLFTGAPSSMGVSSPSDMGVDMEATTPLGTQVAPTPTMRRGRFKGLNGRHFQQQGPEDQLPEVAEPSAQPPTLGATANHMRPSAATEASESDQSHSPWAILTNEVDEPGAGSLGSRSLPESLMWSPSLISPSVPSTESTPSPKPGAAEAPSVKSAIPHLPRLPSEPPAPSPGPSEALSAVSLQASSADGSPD
UniProt P39060, residues 1443-1754: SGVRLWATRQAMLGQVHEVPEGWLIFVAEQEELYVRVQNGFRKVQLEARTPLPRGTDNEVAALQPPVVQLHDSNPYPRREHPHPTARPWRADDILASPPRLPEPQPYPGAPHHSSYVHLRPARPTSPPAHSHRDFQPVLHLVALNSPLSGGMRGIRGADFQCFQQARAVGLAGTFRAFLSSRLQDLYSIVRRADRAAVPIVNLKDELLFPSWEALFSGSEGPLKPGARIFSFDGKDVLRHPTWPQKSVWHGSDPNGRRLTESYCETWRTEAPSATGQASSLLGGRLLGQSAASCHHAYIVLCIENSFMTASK
UniProt P12109, residues 593-1028: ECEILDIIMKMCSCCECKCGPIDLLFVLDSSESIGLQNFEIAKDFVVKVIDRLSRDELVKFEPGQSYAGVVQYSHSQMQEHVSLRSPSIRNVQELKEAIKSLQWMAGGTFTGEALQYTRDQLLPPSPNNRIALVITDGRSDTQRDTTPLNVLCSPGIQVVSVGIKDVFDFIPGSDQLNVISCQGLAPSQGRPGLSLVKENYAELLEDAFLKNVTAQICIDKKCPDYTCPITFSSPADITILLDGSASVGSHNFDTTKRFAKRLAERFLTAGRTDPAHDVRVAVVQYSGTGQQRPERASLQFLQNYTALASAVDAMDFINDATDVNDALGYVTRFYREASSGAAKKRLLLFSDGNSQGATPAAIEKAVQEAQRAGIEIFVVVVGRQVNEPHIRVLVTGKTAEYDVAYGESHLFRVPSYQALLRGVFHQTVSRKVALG
UniProt O95967, residues 26-443: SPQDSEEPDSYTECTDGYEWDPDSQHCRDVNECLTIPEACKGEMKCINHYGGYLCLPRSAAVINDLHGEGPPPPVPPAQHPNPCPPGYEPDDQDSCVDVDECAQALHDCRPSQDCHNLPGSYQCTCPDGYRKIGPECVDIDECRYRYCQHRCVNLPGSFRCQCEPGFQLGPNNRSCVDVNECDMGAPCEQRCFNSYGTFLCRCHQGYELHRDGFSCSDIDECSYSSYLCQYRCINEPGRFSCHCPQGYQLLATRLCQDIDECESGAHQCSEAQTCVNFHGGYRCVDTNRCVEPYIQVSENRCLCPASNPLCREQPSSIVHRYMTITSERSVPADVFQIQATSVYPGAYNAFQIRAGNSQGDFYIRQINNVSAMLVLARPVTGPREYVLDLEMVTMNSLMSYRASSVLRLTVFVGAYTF
Anthrax toxin receptor 1 (Tumor endothelial marker 8, TEM-8) (Q9H6X2, form named): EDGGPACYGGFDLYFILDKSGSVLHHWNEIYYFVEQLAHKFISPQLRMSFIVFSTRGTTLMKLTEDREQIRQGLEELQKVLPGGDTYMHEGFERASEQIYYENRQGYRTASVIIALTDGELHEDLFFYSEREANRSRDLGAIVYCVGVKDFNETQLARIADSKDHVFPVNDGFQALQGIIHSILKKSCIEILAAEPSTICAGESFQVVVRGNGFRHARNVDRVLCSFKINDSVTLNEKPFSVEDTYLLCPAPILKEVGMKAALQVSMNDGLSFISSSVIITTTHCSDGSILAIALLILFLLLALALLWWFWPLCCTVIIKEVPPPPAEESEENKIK
Lysyl oxidase propeptide (LOX-PP) (Pro24Leu) (P28300, form named): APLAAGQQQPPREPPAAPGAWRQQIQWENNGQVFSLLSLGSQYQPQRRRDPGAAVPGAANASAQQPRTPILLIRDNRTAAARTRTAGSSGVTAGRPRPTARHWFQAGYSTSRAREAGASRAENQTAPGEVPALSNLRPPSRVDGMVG

Legend:
Neurocan = Neurocan (UniProt P55066); experiment: SPR; SPR imaging (SPRi, Biacore Flexchip): partners spotted in triplicate on a bare gold chip at 0.06 to 1 mg/ml; purified LOX-PP injected at 2 µM and recirculated for 20 min; PBS with 0.05% Tween 20, 25 °C; both purified
Syndecan-1 ectodomain = target: T1, Syndecan-1 ectodomain (UniProt P18827); experiment: as above
T1 sequence: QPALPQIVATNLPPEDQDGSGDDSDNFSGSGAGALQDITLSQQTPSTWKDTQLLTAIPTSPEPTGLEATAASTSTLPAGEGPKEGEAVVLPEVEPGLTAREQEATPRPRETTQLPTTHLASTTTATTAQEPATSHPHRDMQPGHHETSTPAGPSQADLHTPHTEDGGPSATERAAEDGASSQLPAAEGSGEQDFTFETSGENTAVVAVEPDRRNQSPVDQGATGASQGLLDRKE

[1] = target: T2, Lysyl oxidase homolog 3 (LOXL3) (UniProt P58215); experiment: as above
T2 sequence: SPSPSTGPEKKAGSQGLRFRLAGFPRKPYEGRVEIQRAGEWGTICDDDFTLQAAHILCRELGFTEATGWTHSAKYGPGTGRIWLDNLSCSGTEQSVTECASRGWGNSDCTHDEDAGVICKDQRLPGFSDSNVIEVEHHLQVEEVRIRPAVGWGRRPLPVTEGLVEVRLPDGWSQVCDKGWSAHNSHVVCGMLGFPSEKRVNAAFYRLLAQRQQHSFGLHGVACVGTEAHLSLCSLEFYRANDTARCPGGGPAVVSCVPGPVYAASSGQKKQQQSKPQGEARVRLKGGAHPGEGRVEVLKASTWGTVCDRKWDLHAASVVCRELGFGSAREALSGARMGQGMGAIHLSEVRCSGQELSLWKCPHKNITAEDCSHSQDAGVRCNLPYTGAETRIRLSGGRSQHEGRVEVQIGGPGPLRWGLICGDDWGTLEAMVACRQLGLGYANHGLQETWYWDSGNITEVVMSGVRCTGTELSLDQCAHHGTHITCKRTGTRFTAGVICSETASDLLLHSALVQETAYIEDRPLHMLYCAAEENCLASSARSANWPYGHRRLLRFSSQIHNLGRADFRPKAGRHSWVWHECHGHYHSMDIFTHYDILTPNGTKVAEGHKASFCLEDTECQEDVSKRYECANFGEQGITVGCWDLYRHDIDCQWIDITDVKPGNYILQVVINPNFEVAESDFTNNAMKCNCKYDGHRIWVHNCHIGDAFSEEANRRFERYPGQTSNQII

[2] = target: Collagen XVIII (NC1 domain) (UniProt P39060); experiment: as above
Periostin = target: T3, Periostin (UniProt Q15063); experiment: as above
T3 sequence: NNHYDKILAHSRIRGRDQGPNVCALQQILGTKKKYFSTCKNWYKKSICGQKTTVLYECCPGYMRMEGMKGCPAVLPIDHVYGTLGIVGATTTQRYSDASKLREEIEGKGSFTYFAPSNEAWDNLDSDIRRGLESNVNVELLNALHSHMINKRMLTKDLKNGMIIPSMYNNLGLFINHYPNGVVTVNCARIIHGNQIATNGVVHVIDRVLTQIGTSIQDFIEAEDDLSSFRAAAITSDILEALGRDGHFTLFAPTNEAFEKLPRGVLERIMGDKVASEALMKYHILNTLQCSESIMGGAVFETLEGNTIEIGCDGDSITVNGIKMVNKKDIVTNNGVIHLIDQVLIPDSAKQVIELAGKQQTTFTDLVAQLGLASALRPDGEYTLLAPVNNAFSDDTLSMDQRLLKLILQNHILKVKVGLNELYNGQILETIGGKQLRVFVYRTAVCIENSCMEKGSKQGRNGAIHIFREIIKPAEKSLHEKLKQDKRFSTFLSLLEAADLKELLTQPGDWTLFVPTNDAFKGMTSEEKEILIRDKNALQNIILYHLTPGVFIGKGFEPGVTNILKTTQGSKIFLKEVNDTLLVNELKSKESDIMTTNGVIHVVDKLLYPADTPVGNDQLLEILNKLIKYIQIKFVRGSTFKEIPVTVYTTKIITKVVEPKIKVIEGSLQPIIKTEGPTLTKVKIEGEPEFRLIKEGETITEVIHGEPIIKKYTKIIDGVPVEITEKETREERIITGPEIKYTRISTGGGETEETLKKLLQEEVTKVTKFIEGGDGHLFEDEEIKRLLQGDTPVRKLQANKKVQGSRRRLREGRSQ

[3] = target: Collagen VI (vWF2-3 domain) (UniProt P12109); experiment: as above
Fibulin 4 = Fibulin 4 (UniProt O95967); experiment: as above
[4] = target: Anthrax toxin receptor 1 (Tumor endothelial marker 8, TEM-8) (UniProt Q9H6X2); experiment: SPR; both purified

- binding (Neurocan): no binding (tested: 2 µM)
- binding (Syndecan-1 ectodomain): no binding (tested: 2 µM)
- binding [1]: no binding (tested: 2 µM)
- binding [2]: no binding (tested: 2 µM)
- binding (Periostin): no binding (tested: 2 µM)
- binding [3]: no binding (tested: 2 µM)
- binding (Fibulin 4): no binding (tested: 2 µM)
Substance: Lysyl oxidase propeptide (LOX-PP) (Pro24Leu) (from UniProt P28300 22-168) (domain or fragment)
- binding [4]: binds
